In all, about 310,000 compounds went through this assay and about 14,000 (4.5%) showed an effect of 50% or more. Effects have a minus sign here. Some of the results follow.
Target: human ether-à-go-go-related gene (hERG) potassium channel (human, UniProt Q12809)
Assay: primary screen, population patch clamp on CHO cells stably expressing hERG
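Also: peak tail current of the secondary pulse compared with the same well before compound.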

Sequence of human ether-à-go-go-related gene (hERG) potassium channel (Q12809 whole entry, looked up): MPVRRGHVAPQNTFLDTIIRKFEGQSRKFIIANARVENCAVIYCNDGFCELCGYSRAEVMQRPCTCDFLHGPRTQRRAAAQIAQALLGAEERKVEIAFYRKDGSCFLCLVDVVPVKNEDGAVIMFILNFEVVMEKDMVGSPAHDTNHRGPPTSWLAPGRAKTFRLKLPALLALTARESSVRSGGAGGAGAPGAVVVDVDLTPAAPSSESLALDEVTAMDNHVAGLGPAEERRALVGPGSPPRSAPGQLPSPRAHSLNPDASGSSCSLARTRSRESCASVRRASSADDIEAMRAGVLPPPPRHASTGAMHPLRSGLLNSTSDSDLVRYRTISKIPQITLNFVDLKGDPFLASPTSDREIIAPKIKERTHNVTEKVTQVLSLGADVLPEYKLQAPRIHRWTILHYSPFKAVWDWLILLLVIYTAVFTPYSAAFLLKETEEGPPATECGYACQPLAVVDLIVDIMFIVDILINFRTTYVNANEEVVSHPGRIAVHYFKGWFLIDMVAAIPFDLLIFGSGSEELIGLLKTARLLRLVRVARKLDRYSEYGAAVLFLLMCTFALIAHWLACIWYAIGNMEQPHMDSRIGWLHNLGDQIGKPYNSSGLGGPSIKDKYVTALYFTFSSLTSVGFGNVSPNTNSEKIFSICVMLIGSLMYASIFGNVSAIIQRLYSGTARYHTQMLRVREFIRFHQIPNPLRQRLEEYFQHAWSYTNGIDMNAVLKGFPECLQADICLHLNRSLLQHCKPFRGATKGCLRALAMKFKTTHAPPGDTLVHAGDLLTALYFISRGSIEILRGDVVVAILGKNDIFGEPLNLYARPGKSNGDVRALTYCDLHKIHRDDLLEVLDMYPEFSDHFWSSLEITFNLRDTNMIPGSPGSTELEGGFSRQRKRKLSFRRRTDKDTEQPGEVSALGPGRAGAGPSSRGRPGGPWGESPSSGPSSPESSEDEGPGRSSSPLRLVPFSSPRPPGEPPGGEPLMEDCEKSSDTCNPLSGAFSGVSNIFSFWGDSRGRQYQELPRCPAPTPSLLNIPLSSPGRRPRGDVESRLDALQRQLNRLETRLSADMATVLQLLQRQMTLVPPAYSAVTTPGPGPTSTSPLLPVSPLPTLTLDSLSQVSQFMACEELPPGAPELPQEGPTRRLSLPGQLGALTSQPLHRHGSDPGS

Row | Compound | hERG current change (%, negative = inhibition) at 10uM
1 | Cc1nc2c(-c3ccc(F)cc3)c(C)nn2c(C)c1CCC(=O)NC(C)CCc1ccco1 (stereo not drawn) | -68.8%
2 | CCN(CC)C(=O)c1sc(NC(=O)c2ccc(OC)c([N+](=O)[O-])c2)c(C#N)c1C | 10.4%
3 | CN1CCN(NC(=O)c2cc(-c3ccc(Cl)s3)nc3ccccc23)CC1 | -21%
4 | CCOC(=O)N1CCN(C(=O)Nc2cccc3ccccc23)CC1 | 27.6%
5 | CC1Cc2ccccc2N1C(=S)NC(=O)C1(C)CC1(Cl)Cl (stereo not drawn) | 30.1%
6 | COc1ccc(/C=N/n2cnnc2)cc1Oc1nc(Cl)ncc1F | -23.2%
7 | CS(=O)(=O)N(Cc1ccccc1)c1ccccc1C(=O)O | 27.9%
8 | Cc1cccc(N2C(=O)c3ccc(C(=O)Nc4c[nH]c(=O)[nH]c4=O)cc3C2=O)c1 | 16.4%
9 | O=S(=O)(NCc1ccccc1Cl)c1cccs1 | 10.2%
10 | Cc1ccc(Oc2ccccc2/C=N/O)cc1 | -3.84%
11 | CCCNC(=O)c1c(N)n(-c2ccc3c(c2)OCO3)c2nc3ccccc3nc12 | 17.9%
12 | CNC(=O)CN(c1ccc(C23CC4CC(CC(C4)C2)C3)cc1)S(C)(=O)=O | 14.8%
13 | Cn1c(=O)c2sccc2n2c(CCCC(=O)N3CCCCC3)nnc12 | 5.19%
14 | CCN1C(=O)CC(N2CCC(C(=O)N3CCOCC3)CC2)C1=O (stereo not drawn) | 7.58%
15 | CN(C)C(CNC(=O)c1ccccc1C(F)(F)F)c1ccco1 (stereo not drawn) | 7.83%
16 | CCN1CC(CN(C)Cc2cn(-c3ccc(C)cc3)nc2-c2cccc(C)c2)CC1=O (stereo not drawn) | -60.5%
17 | Cc1cc(Nc2ccccc2Cl)nc(-c2ccccc2O)n1 | 7.12%
18 | COc1ccc(NC(=O)c2cc(-c3ccco3)on2)c(OC)c1 | 23.2%
19 | CN(C)/C=C(\C#N)S(=O)(=O)c1ccccc1 | 9.4%
20 | O=C(O)C1C2C=CC(CC2)C1C(=O)O (stereo not drawn) | 16.6%
21 | O=C(Cc1ccc(-c2ccccc2)cc1)NNC(=S)NCc1ccco1 | 8.5%
22 | Cc1cc(NC(=O)Cc2ccccc2)no1 | 3.97%
23 | COCCn1c(N)c(N(Cc2ccccc2)C(=O)c2ccc(C#N)cc2)c(=O)[nH]c1=O | -1.47%

Row | Compound | hERG current change (%, negative = inhibition) at 10uM
24 | CN(C)/C=C1\C=C(c2ccccc2)OC1=O | 14.1%
25 | CCOc1cnc(C(=O)NNC(=O)c2ccccc2Br)o1 | 11%
26 | FCCCOc1ccc(-c2nccc(-c3ccc(Cl)cc3)n2)cc1 | 17.3%
27 | CCOCCCn1cnc2c([nH]c3cc(OC)ccc32)c1=O | -12.5%
28 | Cc1ccc(CSC2=NCCN2C(=O)C2CC2)cc1 | 0.327%
29 | CCOC(=O)c1sc2ccccc2c1NC(=O)c1coc2ccccc2c1=O | 1.75%
30 | CN(Cc1ccco1)C(=O)Cn1c(=O)oc2cc(S(=O)(=O)NCc3ccccc3)ccc21 | -5.21%
31 | CCCCc1ccc(NS(=O)(=O)N(C)C)cc1 | -4.03%
32 | O=C(c1cnn(C(=O)c2cccc(S(=O)(=O)N3CCOCC3)c2)c1)c1cc(Cl)cc(Cl)c1O | -44.5%
33 | C=CCn1c(SCC(=O)NC2CCCc3ccccc32)nnc1-c1ccncc1 (stereo not drawn) | -14.5%
34 | CCOc1ccc(-n2c(Cc3cc(=O)[nH]c(=O)[nH]3)nnc2SCC(=O)Nc2nnc(C)s2)cc1 | -40.1%
35 | COc1ccc2c(c1)[nH]c1c(=O)n(/N=C/c3ccc(OC)c(CN4CCCCC4)c3)cnc12 | -64.3%
36 | O=S(=O)(Nc1ccc(-c2nc3cccnc3s2)cc1)c1ccc(Cl)s1 | -3.47%
37 | CCOc1cc(/C=N/Nc2nc3ccccc3[nH]2)cc(Br)c1OCC(=O)N(C)C | -0.635%
38 | Cc1cccc(NC(=O)C(=O)NCCc2c[nH]c3ccccc23)c1C | 0.383%
39 | CCCCN(C)CCNC(=O)CN1C(=O)CSc2ccc(S(=O)(=O)N3CCOCC3)cc21 | 2.2%
40 | Cc1cccc(CN2CCN(Cc3ccc4nonc4c3)CC2CCO)n1 (stereo not drawn) | -35.6%
41 | Cc1ccccc1N(C)C(=O)C1CCCN(c2ncnc3c2nc2n3CCCCC2)C1 (stereo not drawn) | -7.96%
42 | Cc1nc(COc2ccccc2Cl)sc1-c1ccnc(N)n1 | -4.73%
43 | Cc1ccc(-n2c(=O)c3c4c(sc3n3c(C)nnc23)COC(C(C)C)C4)cc1 (stereo not drawn) | 11.1%
44 | COc1ccc(NC(=O)c2cccc(S(=O)(=O)N(C)c3ccccc3)c2)cn1 | -24.6%
45 | NNC(=O)c1snnc1-c1ccccc1 | 12.9%
46 | COC(=O)c1cc(OC)nc(OC)c1 | 22.1%

Row | Compound | hERG current change (%, negative = inhibition) at 10uM
47 | Cc1ccc(N2C(=O)c3ccccc3C2Nc2ccc(S(=O)(=O)N3CCCCC3)cc2)nc1 (stereo not drawn) | -2.37%
48 | COc1ccc(S(=O)(=O)NNC(=O)Nc2ccccc2OC)c(OC)c1 | 16.3%
49 | CCSc1nnc(NC(=O)C2CCCN(S(=O)(=O)c3cnc[nH]3)C2)s1 (stereo not drawn) | -1.36%
50 | Cc1ccccc1CC(=O)N1CCN(C(=O)C2CCCO2)CC1 (stereo not drawn) | 22.8%
51 | Cc1nc(-c2nnc(-c3ccccc3)o2)c(C(F)(F)F)o1 | 7.01%
52 | N=C1/C(=C\c2coc3ccccc3c2=O)C(=O)N=C2SC=CN12 | 15.3%
53 | CCOc1ccccc1NC(=O)CNC(=O)N1CC(=O)Nc2ccccc21 | 11%
54 | S=C(NCCc1ccc(Cl)cc1)Nc1ccc(Cl)cc1Cl | -3.8%
55 | CC1CCC2(CC1)NC(=O)N(CC(=O)c1ccc[nH]1)C2=O (stereo not drawn) | 0.171%
56 | CC(=O)N1c2ccc(S(=O)(=O)N3CCCCC3)cc2CC1C(=O)NCc1cccc(Cl)c1 (stereo not drawn) | -38.4%
57 | COc1ccc(OC)c(S(=O)(=O)NC(N)=NCCc2ccccc2)c1 | 5.18%
58 | COc1ccc(C2=NS(=O)(=O)N(C)C(C(=O)NCc3ccc(F)cc3)=C2)cc1OC | -59%
59 | CC(C)c1ccc(C(=O)NCCCNC(=O)c2cnccn2)cc1 | 3.64%
60 | Cc1ccc(NC(=O)CC2Oc3ccc(C)cc3NC2=O)c(C)c1 (stereo not drawn) | 14.5%
61 | COc1cccc(CN(C)CC(=O)Nc2sc3c(c2C#N)CCC3)c1 | 8.07%
62 | CC1CC(C)CN(S(=O)(=O)N2CCCC(C(=O)NCc3ccccc3Cl)C2)C1 (stereo not drawn) | 17.5%
63 | O=C(OCc1cnc(Cl)s1)c1c(F)cccc1F | 28.7%
64 | CC(SC1=NCCS1)C(=O)Nc1nnc(-c2ccc(Br)cc2)s1 (stereo not drawn) | -17.1%
65 | O=C(NC(=S)Nc1cccc2ncccc12)c1ccco1 | 9.21%
66 | COc1ccc(NC(=O)/C(=C/c2cccs2)NC(=O)c2ccco2)cc1 | -21.1%
67 | CC(C)(C)c1ccc(OCCCNC2CCCC2)cc1.O=C(O)C(=O)O | -54.5%
68 | CCC(=O)c1ccc(OC(=O)N(C)c2ccccc2)cc1 | 12.7%
69 | COc1ccc(CNC(=O)CCCNS(=O)(=O)c2cccc3nonc23)cc1 | -1.27%

Row | Compound | hERG current change (%, negative = inhibition) at 10uM
70 | CCCCCCN=C(C)c1c(O)n(Cc2ccccc2)c(=O)[nH]c1=O | -9.6%
71 | CCc1c(C)nc(N2CCN(c3ccc(F)cc3)CC2)[nH]c1=O | 16.1%
72 | COc1ccc(CCNC(=O)Nc2cccs2)c(OC)c1 | 14.6%
73 | COc1ccccc1C(=O)Nc1ccnn1C1CCN(C(=O)c2ccoc2C)CC1 | -62.9%
74 | Cc1ccc(CNC(=O)C(C(=O)NCc2ccc(C)o2)c2ncc(C(F)(F)F)cc2Cl)o1 | 13.6%
75 | CCCc1nc2ccccc2n1CCOc1ccccc1 | -27.1%
76 | CCc1ccc(-c2nc(SCC(=O)NC3CCCC3)n[nH]2)cc1 | -1.01%
77 | CC1(C)CC2CC(C)(CN2c2ncnc3ccccc23)C1 (stereo not drawn) | -44.3%
78 | CCN(CC(=O)NCc1cccs1)C(=O)CCC(=O)c1ccc(F)cc1 | -49.7%
79 | CC(=O)N1CCN(c2ccc(NC(=S)NC(=O)c3ccccc3)cc2)CC1 | 2.73%
80 | CCN1CCc2nc(N)oc2CC1.Cl | 1.67%
81 | C/C(=N\NC(=O)c1nnn(-c2nonc2N)c1-c1cccs1)c1ccc(C)cc1 | -0.452%
82 | Cc1ccc(S(=O)(=O)n2c(C)nc3cc(C)ccc32)cc1 | -3.01%
83 | O=C(COc1cccc2ccccc12)N1CCN(c2ccccc2)CC1 | 7.7%
84 | CC(C)CC(c1nnnn1Cc1ccco1)N1CCN(c2cccc(Cl)c2)CC1 (stereo not drawn) | 6.99%
85 | COc1ccc(NC(=O)CSc2nc(-c3ccco3)nc3cc(=O)[nH]n23)cc1Cl | 8.71%
86 | O=C(CN1CCOC1=O)N1CCCC(N2CCN(c3cccc(C(F)(F)F)c3)CC2)C1 (stereo not drawn) | -1.16%
87 | COc1cc(S(=O)(=O)Nc2ccccn2)ccc1F | 20.2%
88 | CC(=O)OCC(=O)N1CCN(c2ccc([N+](=O)[O-])cc2)CC1 | -63.3%
89 | O=C(CCN=C1NS(=O)(=O)c2ccccc21)Nc1ccc(Cl)cc1F | 4.94%
90 | Cc1cc(NC(=O)Nc2ccc(Cl)c(Cl)c2)no1 | 12.2%
